Source: PubChem BioAssay AID504832 (National Center for Advancing Translational Sciences (NCATS), 2011)
The whole screen tested about 310,000 compounds, of which about 18,000 (5.8%) were called active. Inconclusive results, whose numbers are uncertain, are shown with a selection of clear calls. Calls follow the shape of the dose curve; as a rule, active = well fitted inhibition curve with a large enough effect; inconclusive = small, poorly fitted or top-dose-only effect, or another doubt; inactive = no such curve, though single readings can be large or run the other way. No potency is given beside an inconclusive call; the fits are too rough.

Assay: Primary qHTS for delayed death inhibitors of the malarial parasite plastid, 48 hour incubation
Settings: P. falciparum luciferase growth in erythrocytes; series mostly up to 28.7 µM; activity change, negative = inhibition: at the top concentration
Method in brief: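 Luciferase-expressing P. falciparum in infected erythrocytes (2% hematocrit, 0.1% parasitemia final) in RPMI 1640/0.5% Albumax were exposed to compound for 48 hours at 37 C, 5% CO2; growth read as luminescence.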
% is scaled to controls: 0 for no effect and ±100 for the full control effect; potency is read from the fitted curve at half-maximal effect; tags tell the direction and shape of the fitted curve.

Structure (SMILES)	Potency	activity change, negative = inhibition
Cc1ccc[n+](CC(=O)N2CCCc3ccccc32)c1	inconclusive [inhibitor, single point]	
CCc1cc2c3c(c1)/C(=C1/SC(N)=NC1=O)C(=O)N3C(C)(C)C=C2C	inconclusive [inhibitor, full curve, poor fit]	
CC1CCN(CCCCOc2cccc(C(C)C)c2)CC1	inconclusive [inhibitor, single point]	
CC(=O)NC(NC(=S)Nc1cccc(Br)c1)C(Cl)(Cl)Cl (stereo not given)	inconclusive [inhibitor, single point]	
Cc1ccc(-c2nnc(Nc3ccc(C(=O)N(C)C)cc3)c3ccccc23)cc1S(=O)(=O)NCC1CCCO1 (stereo not given)	active: 2.33 µM	
CCOc1ccccc1C(=O)NCC(=O)NCCCc1ccccc1		inactive: -2.73%
CCCC1=C(C(=O)OCC)C(c2cc(Cl)cc(OC)c2OCc2ccccc2)NC(=O)N1 (stereo not given)	inconclusive [inhibitor, partial curve, poor fit]	
O=C1COc2cccnc2N1	inconclusive [inhibitor, partial curve, poor fit]	
COC(=O)C1=C(c2ccc(F)cc2OCc2ccccc2)C[C@@H]2CC[C@H]1N2C(=O)NCc1ccc([N+](=O)[O-])cc1	active: 11.7 µM	
CN(C(=O)COC(=O)c1ccccc1SCC(=O)N1CCCC1)C1CCS(=O)(=O)C1 (stereo not given)		inactive: 14.5%
Cc1c(C(=O)NCc2ccc(F)cc2)oc2ccc(S(=O)(=O)N3CCOCC3)cc12	inconclusive [inhibitor, single point]	
COc1ccc2cc3cc(C(=O)NCc4cccnc4)oc3nc2c1	inconclusive [inhibitor, partial curve, poor fit]	
CCOc1ccccc1OCCCC(=O)N1CCN(S(=O)(=O)c2ccc(C)cc2C)CC1	inconclusive [inhibitor, partial curve, poor fit]	
CCOC(=O)C1CCN(Cc2nnnn2CCc2ccccc2)CC1		inactive: 92.4%
O=C(c1ccc(S(=O)(=O)NCc2ccco2)cc1)N1CCN(c2ccc(F)cc2)CC1	inconclusive [inhibitor, single point]	
CCN(CC)C(=O)c1nn(-c2ccccc2)c2c1C1CCC2(C)C1(C)C (stereo not given)	inconclusive [inhibitor, single point]	
COCCn1cnc2c1c(=O)n(Cc1ccc(Br)cc1)c(=O)n2Cc1ccccc1	inconclusive [inhibitor, single point]	
O=C(CSc1nnnn1-c1ccc2c(c1)OCCO2)N1CCN(C(=O)c2ccco2)CC1		inactive: -24.9%
Cc1nonc1NC(=O)CSc1nc(C2CCCCC2)nc2ccccc12	inconclusive [inhibitor, full curve, poor fit]	
COc1ccccc1NC(=O)c1cc(-c2cc(OC)c(OC)c(OC)c2)nc2ccccc12	active: 4.65 µM	
Cc1cccc(Nc2nnc(SCC(=O)NCc3cccs3)s2)c1C		inactive: -24.6%
CCC1SC2=NC(C)=C(C(=O)OC)C(c3ccc(C)cc3)N2C1=O (stereo not given)	inconclusive [inhibitor, single point]	
O=Cc1ccc(OCCCOc2cccc3cccnc23)cc1		inactive: 36.4%
Clc1ccc(C[n+]2cc(-c3ccc(Cl)cc3)n3c2CCC3)cc1	active: 0.828 µM	

Structure (SMILES)	Potency	activity change, negative = inhibition
CCN(CC)C(=O)COC(=O)c1cc(-c2ccco2)nc2ccccc12	inconclusive [inhibitor, single point]	
CCc1nc(N2CCN(S(C)(=O)=O)CC2)c2c3c(sc2n1)CCCC3	inconclusive [inhibitor, partial curve, poor fit]	
Cn1c(NCc2ccco2)nc2c1c(=O)n(Cc1ccc(Cl)cc1)c(=O)n2C	active: 9.28 µM	
COc1ccc(C2c3ccc(O)cc3Oc3ncn(CCN4CCOCC4)c(=N)c32)cc1OC (stereo not given)	inconclusive [inhibitor, single point]	
COc1ccc(OC)c2c(C)cc(N3CCN(C(=O)c4ccc(C)cc4)CC3)nc12	inconclusive [inhibitor, single point]	
Cc1ccc(/C=C2\SC(=S)N(CCC(=O)N3CCOCC3)C2=O)cc1	inconclusive [inhibitor, partial curve, poor fit]	
Cc1cccc(OCc2nnc(SCC(=O)N(C)C3CCCCC3)o2)c1	inconclusive [inhibitor, single point]	
Cc1ccc(OCC(O)Cn2c(NCCc3ccccc3)nc3c2c(=O)[nH]c(=O)n3C)cc1 (stereo not given)	inconclusive [inhibitor, partial curve]	
COC(=O)c1ccc(NC(=O)Nc2ccc3c(c2)nc(C)n3C)cc1	inconclusive [inhibitor, single point]	
Cc1cccc(C(=O)NCC(=O)OCC(=O)N(C)CC(=O)Nc2ccc(F)cc2)c1		inactive: 15.3%
O=[N+]([O-])c1ccc(N/N=C/c2ccc(OCc3cccc4ccccc34)cc2)nc1	inconclusive [inhibitor, single point]	
O=c1[nH]c(SCc2ccc(Cl)cc2)nc2ccccc12	inconclusive [inhibitor, single point]	
Cc1ccc(C(=O)N/N=C(\CC(C)C)c2ccccc2)cc1		inactive: 38.2%
CCOc1cc2[nH]c(=O)n(CCCC(=O)N(C)Cc3ccccc3)c(=O)c2cc1OCC	inconclusive [inhibitor, full curve, poor fit]	
CN(C)S(=O)(=O)c1ccc(Cl)c(NC(=O)C2CCN(S(=O)(=O)c3cccs3)CC2)c1	inconclusive [inhibitor, single point]	
Cc1ccc(Oc2ccc(OCC(=O)NC3CCS(=O)(=O)C3)cc2)cc1 (stereo not given)	inconclusive [inhibitor, single point]	
COc1ccc(C(=O)NCC(c2ccco2)N2CCc3ccccc3C2)cc1 (stereo not given)	inconclusive [inhibitor, single point]	
O=C(Nc1cnn(Cc2ccc(F)cc2)c1)C(c1ccccc1)c1ccccc1	inconclusive [inhibitor, single point]	
Cc1ccccc1NC(C)C(=O)N/N=C/c1ccccc1OCc1cccc(Br)c1 (stereo not given)	inconclusive [inhibitor, full curve, poor fit]	
Cc1ccc(CCN2CC(C(=O)NCc3ccco3)CC2=O)cc1 (stereo not given)		inactive: 7.84%
CC(=O)Nc1ccc(S(=O)(=O)NCC2CCC(C(=O)N3CCCCC3)CC2)cc1 (stereo not given)		inactive: -22%
CC(=O)Nc1ccc(NC(=O)C2CC(=O)N(c3cccc(C)c3C)C2)cc1 (stereo not given)		inactive: 1.1%
CCc1ccccc1NC(=O)c1cc(-c2ccc(OC)cc2)on1		inactive: 34.5%
CC(C)c1cc(NC(=O)CCl)on1	active: 3.29 µM	

Structure (SMILES)	Potency	activity change, negative = inhibition
CCCCc1c(C)[nH]c(=S)[nH]c1=O		inactive: -3.24%
CCCC(CCC)c1nc2ccncc2[nH]1		inactive: -15.9%
CC(=O)c1cccc(NC(=O)COc2ccc3oc(=O)cc(C)c3c2)c1	inconclusive [inhibitor, single point]	
C=C(C)COc1ccc(-c2n[nH]c(C)c2-c2ccccc2OC)c(O)c1	active: 8.28 µM	
CCN1CCCC1CNCc1cccc(OC)c1OCc1ccccc1 (stereo not given)		inactive: -26.4%
CCc1cccc2c(C(=O)CSc3nnc(-c4ccncc4)n3C)c[nH]c12	inconclusive [inhibitor, single point]	
COc1ccc(/C=C/C(=O)OCC(=O)Nc2c(C)cccc2C)cc1	inconclusive [inhibitor, single point]	
CN(C)c1nc(-c2cn(CCC#N)c3ccccc23)cs1	inconclusive [inhibitor, single point]	
COc1cc(/C=N/Nc2cccc(C)c2)cc(Br)c1O	inconclusive [inhibitor, partial curve, poor fit]	
Cc1nnc(SCCCn2c(N3CCN(c4ccccc4)CC3)nc3c2c(=O)[nH]c(=O)n3C)s1	inconclusive [inhibitor, single point]	
Cc1ccc(-c2ncc(Cl)cc2-c2ccc(S(C)(=O)=O)cc2)cn1	inconclusive [inhibitor, single point]	
COc1ccc(-c2oc3ccc(-c4ccc(OC)nc4)cc3c2C#CC2(O)CCCCC2)cc1	inconclusive [inhibitor, single point]	
CC(=O)N(C)c1ccc(NC(=O)c2ccccc2C(=O)O)cc1		inactive: 1.15%
Cc1ccc(NC(=O)COC(=O)c2ccc(CN3CCCC3=O)cc2)c(Cl)c1		inactive: -15%
O=C(Nc1ccccc1C(=O)Nc1ccc(Br)cn1)c1ccccc1Cl	inconclusive [inhibitor, single point]	
Cc1ccc(NC(=O)c2ccc(COc3ccccc3)o2)nc1		inactive: 44%
COc1ccc(S(=O)(=O)NCC(c2cccnc2)N2CCN(Cc3ccccc3)CC2)cc1 (stereo not given)	inconclusive [inhibitor, single point]	
COc1ccc(CCNC(=O)[C@@H](NC(=O)c2ccccc2F)C(C)C)cc1OC	inconclusive [inhibitor, single point]	
COc1cc(/C=N/N2CCN(C3c4ccccc4-c4ccccc43)CC2)cc(OC)c1O	inconclusive [inhibitor, partial curve]	
COc1ccccc1N1CCN(CCCNC(=O)Nc2ccccc2)CC1	active: 11.7 µM	
COc1ccccc1NC(=S)N/N=C/c1cccc(C)c1		inactive: 0%
O=c1oc(-c2ccccc2NS(=O)(=O)c2ccc(Cl)cc2)nc2ccccc12	inconclusive [inhibitor, single point]	
